Data taken from PubChem BioAssay AID686979 (National Center for Advancing Translational Sciences (NCATS), 2013).
Where “and” joins values, the source holds several entries; their conditions need not be identical. Identical values can stand only once. The campaign covered roughly 420,000 compounds. About 50,000 (12%) were called active. Inconclusive results, whose numbers are uncertain, are shown with a selection of clear calls. Calls come from the whole dose curve; as a rule, active = well fitted inhibition curve with a large enough effect; inconclusive = small, poorly fitted or top-dose-only effect; inactive = flat fitted curve, though single readings scatter. Potencies of inconclusive entries are doubtful fits and often do not repeat. Some structures have more than one record in an assay (separate samples or runs), and their calls can disagree.

assay: qHTS for Inhibitors of human tyrosyl-DNA phosphodiesterase 1 (TDP1): qHTS in cells in presence of CPT; details: chicken DT40 Tdp1-/-;hTDP1 cells + 20 nM CPT, ATP luminescence, 48 h; activity change, negative = growth inhibition: at 46.2 µM (top of the series) unless noted; note: nearly all actives have a fitted effect of over 55% in size
Procedure, shortened: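 Chicken DT40 Tdp1-/- cells complemented with human TDP1, 400 cells/well, exposed to compounds plus 20 nM camptothecin for at least 48 h at 37 C; viability read as ATP content by CellTiter-Glo luminescence.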
% is set by controls: 0 for no effect and ±100 for the full control effect; potency is the fitted concentration of half-maximal effect; tags give direction and shape of the fitted curve.

Row | Structure (SMILES) | Potency | activity change, negative = growth inhibition
1 | O=C(c1ccccc1F)c1cn(Cc2ccc(F)cc2)c2ccccc12 | active: 16.4 µM | 
2 | O=C1NCN(c2ccccc2)C12CCN(C(c1ccccc1)c1nnnn1C1CCCC1)CC2 (centres undefined) | inconclusive: 29.1 µM [inhibitor, single point] | 
3 | COc1ccc(N2C(=O)/C(=C/c3cc(C)n(-c4ccc(C)cn4)c3C)C(=O)NC2=S)c(OC)c1 | inconclusive: 29.1 µM [inhibitor, single point] | 
4 | C[C@]12CCC(=O)C=C1CC[C@@H]1[C@@H]2CC[C@]2(C)C(=O)CC[C@@H]12 | inconclusive: 33.5 µM [inhibitor, single point] and inconclusive: 23.1 µM [inhibitor, single point] | 
5 | CC(=O)O[C@H]1C[C@@H]2CC[C@@H]3[C@H](CC[C@]4(C)C(=O)CC[C@@H]34)[C@@]2(C)C[C@@H]1OC(C)=O | active: 23.1 µM | 
6 | COC(=O)C1=C(c2ccc(F)cc2F)C[C@@H]2CC[C@H]1N2C(=O)NCc1ccc(F)cc1 | inconclusive: 23.1 µM [inhibitor, single point] | 
7 | CC1=CCCC2C1(C)CCC(C)C2(C)CC/C(C)=C/C[n+]1cn(C)c2c(N)ncnc21 (centres undefined) | inconclusive: 18.4 µM [inhibitor, single point] | 
8 | CCc1ccc(CN2CCCC(C(=O)c3sccc3C)C2)o1 (centres undefined) | inconclusive: 14.6 µM [inhibitor, partial curve] | 
9 | C[C@H]1C(=O)O[C@H]2CCN3CC=C(COC(=O)[C@](C)(O)[C@@]1(C)O)C23 (some centres undefined) | inactive | 
10 | O=C(c1ccc(F)cc1)N1CCC(c2nc(-c3ccc(S(=O)(=O)N4CCCC4)cc3)no2)CC1 | active: 20.6 µM | 
11 | CCNc1cc(N2CCN(C)CC2)ccc1[N+](=O)[O-] | inactive | 
12 | COC(=O)C1=C(c2cccc(C#N)c2)C[C@@H]2CC[C@H]1N2C(=O)NC1CCCCC1 | inconclusive: 23.1 µM [inhibitor, partial curve, poor fit] | 
13 | O=S(=O)(c1ccccc1C(F)(F)F)N1CCN(c2ncnc3sccc23)CC1 | active: 14.6 µM | 
14 | CC(C)[C@H](CO)Nc1nc(Nc2cccc(Cl)c2)c2ncn(C(C)C)c2n1 | active: 9.44 µM | 
15 | CCOC(=O)[C@]12Cc3cc(C)ccc3[C@H]1N(C)C(=O)c1ccccc12 | active: 16.4 µM | 
16 | COc1ccc(-n2c(O)c(C=NCCN(C)C)c(=O)[nH]c2=O)cc1 | inactive | 
17 | O=C1CC2OCC=C3CN4CCC56c7cc([N+](=O)[O-])ccc7N1C5C2C3CC46 (centres undefined) | inconclusive: 29.1 µM [inhibitor, single point] | 
18 | CN(C)CCC=C1c2ccccc2CCc2ccccc21 | active: 23.7 µM | 
19 | CC(=O)c1ccc2c(c1)C1C(Cl)C(Sc3ccccc3[N+](=O)[O-])CC1C(c1ccccc1[N+](=O)[O-])N2 (centres undefined) | active: 10.3 µM | 
20 | CCOC(=O)CC(SP1(=S)OCC2(CC=CCC2)CO1)C(=O)OCC (centres undefined) | inactive | 
21 | C[C@]12CC[C@H]3C(=CCc4cc(O)ccc43)[C@@H]1CCC2=O | inconclusive: 29.1 µM [inhibitor, single point] | 
22 | O=C1NC(=O)N(CCC2=CCCCC2)C(=O)/C1=C\c1cccs1 | inconclusive: 25.9 µM [inhibitor, single point] | 
23 | C[C@@H]1CN([C@H](C)CO)C(=O)c2cc(/C=C/c3ccccc3)cnc2O[C@H]1CN(C)C(=O)NC1CCCCC1 | inconclusive: 18.4 µM [inhibitor, single point] | 

Row | Structure (SMILES) | Potency | activity change, negative = growth inhibition
24 | NC(=O)OCCCc1ccccc1 | inactive and active: 5.31 µM | 
25 | Cc1cc(C)c(C)c(C(O)(C(=O)O)c2ccccc2)c1C (centres undefined) | inactive | 
26 | COc1ccc(NC(=O)N2CCC3(CC2)CCN(C(=O)Oc2ccccc2)CC3)cc1 | inconclusive: 16.4 µM [inhibitor, partial curve] | 
27 | CC(C)c1nn2c(=O)cc(COC(=O)Cc3ccccc3)nc2s1 | inactive | 
28 | Cc1ccc(Cn2nc(C)c(C=O)c2Cl)cc1 | inactive | 
29 | NC1CCc2cc(O)c(O)cc2C1 (centres undefined) | active: 13 µM and active: 20 µM and active: 20.6 µM | 
30 | CCOc1c(Cl)cc(CNC(C)C(O)c2ccccc2)cc1OC (centres undefined) | inactive | 
31 | COc1ccc(N2C(=O)CC(N3CCC(n4c(=O)[nH]c5ccccc54)CC3)C2=O)cc1 (centres undefined) | inconclusive: 29.1 µM [inhibitor, single point] | 
32 | CCN(CC)C(=O)COc1cc(C)cc2oc(=O)c3c(c12)CCCC3 | inconclusive: 5.17 µM [inhibitor, single point] | 
33 | COc1ccccc1N1C(=O)NC(=O)/C(=C\c2cnn(-c3ccccc3)c2)C1=O | inconclusive: 29.1 µM [inhibitor, single point] | 
34 | CN(C)CCNC(=O)c1cccn(Cc2cccc(C(F)(F)F)c2)c1=O | active: 23.1 µM | 
35 | CC(C)OCCCNC(=O)c1c(N)n(Cc2cccs2)c2nc3ccccc3nc12 | inconclusive: 29.1 µM [inhibitor, single point] | 
36 | CCCOP(=O)(c1ccc(N(C)C)cc1)C(O)c1ccc(Cl)cc1Cl (centres undefined) | active: 25.9 µM | 
37 | COc1cccc(CC(=O)N(C)C2CCCN(Cc3ccccc3F)C2)c1 (centres undefined) | inactive | 
38 | COc1ccc(C2CC(c3cccs3)=NN2c2nc(C)c(C(C)=O)s2)cc1OC (centres undefined) | inconclusive: 29.1 µM [inhibitor, single point] | 
39 | C[C@H]1OC[C@@H](C[N+](C)(C)C)O1 | inactive | 
40 | O=C(C(=C1N(Cc2ccc(Cl)nc2)CCN1Cc1ccc(Cl)nc1)[N+](=O)[O-])C(Cl)Cl | inconclusive: 25.9 µM [inhibitor, single point] | 
41 | COC(=O)C1=C(c2ccc(OCc3ccccc3)cc2)C[C@@H]2CC[C@H]1N2C(=O)NCc1cccc(C(F)(F)F)c1 | active: 20.6 µM | 
42 | COc1cc(C=C2C(=O)NC(=O)NC2=O)ccc1O | inactive | 
43 | NC(N)=N/N=C/c1cn(-c2ccccc2)nc1-c1cccs1 | active: 10.3 µM | 
44 | O=C(O)C(Cc1cnc[nH]1)NS(=O)(=O)c1ccc(Br)cc1 (centres undefined) | inactive | 
45 | CCC/C=N/O | inactive | 
46 | COc1ccc2c(c1)CC[C@@H]1[C@@H]2CC[C@]2(C)[C@@H](NCCCCCCN3C(=O)C=CC3=O)CC[C@@H]12 | inconclusive: 31.7 µM [inhibitor, single point] | 

Row | Structure (SMILES) | Potency | activity change, negative = growth inhibition
47 | O=C1NC(=O)N(Cc2ccco2)C(=O)/C1=C\c1ccc(-c2ccc(F)cc2)o1 | active: 20.6 µM | 
48 | CCCCNC(=S)N(CCN(CC)CC)Cc1cc2cc3c(cc2[nH]c1=O)OCO3 | inconclusive: 20.6 µM [inhibitor, single point] | 
49 | C[C@H]1CC[C@]2(NC1)O[C@H]1C[C@H]3[C@@H]4CC[C@H]5C[C@@H](O[C@@H]6O[C@H](CO)[C@H](O[C@@H]7O[C@H](CO)[C@@H](O)[C@H](O[C@@H]8OC[C@@H](O)[C@H](O)[C@H]8O)[C@H]7O[C@@H]7O[C@H](CO)[C@@H](O)[C@H](O)[C@H]7O)[C@H](O)[C@H]6O)CC[C@]5(C)[C@H]4CC[C@]3(C)[C@H]1[C@@H]2C | active: 1.88 µM | 
50 | COC(=O)[C@@H](Cc1ccccc1)N(Cc1ccccc1)S(=O)(=O)N(Cc1ccccc1)[C@H](Cc1ccccc1)C(=O)OC | active: 12.6 µM and active: 23.1 µM | 
51 | COc1cc(OC)c(C=O)c(OC(=O)N(C)C)c1 | inconclusive: 25.9 µM [inhibitor, single point] | 
52 | COc1ccc(CN2CCN(C(=O)COc3cccc(C)c3)CC2)c(OC)c1 | inconclusive: 25.9 µM [inhibitor, partial curve] | 
53 | O=P(O)(O)CN1CCNCCN(CP(=O)(O)O)CCNCC1 | active: 6.51 µM | 
54 | O=C(COc1ccccc1)c1cn(Cc2ccccc2)c2ccccc12 | inconclusive: 10.3 µM [inhibitor, partial curve] | 
55 | Cc1nn(Cc2ccccc2Cl)c(Cl)c1C(=O)OC(C(=O)NC(N)=O)C(C)C (centres undefined) | inactive | 
56 | O=C(NC1(C(F)(F)F)Oc2ccccc2O1)N1CCC2(CC1)OCCO2 | inconclusive: 20.6 µM [inhibitor, single point] | 
57 | CCN(CC(=O)Nc1ccc(C#N)c(Cl)c1)CC(=O)NC1CCS(=O)(=O)C1 (centres undefined) | inconclusive: 23.1 µM [inhibitor, single point] | 
58 | ClCCN(CCCl)c1ccc(/C=C/c2sc3ccccc3[n+]2CCCCI)cc1 | active: 3.16 µM | 
59 | O=C(Nc1cc(C(F)(F)F)cc(C(F)(F)F)c1)c1cccn(Cc2ccccc2Cl)c1=O |  | inconclusive: -32.3% [inhibitor]
60 | C[n+]1ccc(-c2cc[n+](C)cc2)cc1 | inactive | 
61 | CCCCc1cc(=O)oc2cc(OCC(=O)N3C[C@H]4C[C@@H](C3)c3cccc(=O)n3C4)c(Cl)cc12 | inconclusive: 13 µM [inhibitor, partial curve] | 
62 | C(=N\NC1=NCCCCC1)/c1c[nH]c2ccccc12 | inconclusive: 29.1 µM [inhibitor, single point] | 
63 | O=C1NC(=O)C(=Cc2ccc(Cl)cc2)C(=O)N1 | inactive | 
64 | O=C1C2CCN(CC2)C1(CO)CO | active: 2.66 µM | 
65 | CCCCCCN=Cc1c(O)n(C)c(=O)n(C)c1=O | inconclusive: 23.1 µM [inhibitor, single point] | 
66 | O=C1NC(=O)N(c2cccc(Cl)c2)C(=O)/C1=C\c1ccc(Sc2nc3ccccc3[nH]2)o1 | inconclusive: 18.4 µM [inhibitor, partial curve] | 
67 | N#CC(C#N)=NNc1ccc(-n2ccc(C(F)(F)F)n2)cc1 | active: 2.31 µM | 
68 | CN1CCCC(C(=O)c2ccccc2)C1 (centres undefined) | inactive | 
69 | O=c1cc(CN2CC=C(c3ccccc3)CC2)c2c(ccc3ccccc32)o1 | inconclusive: 29.1 µM [inhibitor, single point] | 
